Measurements reported in article PMC4336329 (PLoS ONE, 2015).
Out of some 310,000 compounds screened, about 14,000 (4.5%) showed an effect of 50% or more. The effect is printed as a negative number. The list shows a part of the results.

Molecular target: human ether-à-go-go-related gene (hERG) potassium channel (human, UniProt Q12809)
Test: primary screen, population patch clamp on CHO cells stably expressing hERG
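Note: peak tail current of the secondary pulse compared with the same well before compound.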

human ether-à-go-go-related gene (hERG) potassium channel, sequence (Q12809 whole entry, looked up): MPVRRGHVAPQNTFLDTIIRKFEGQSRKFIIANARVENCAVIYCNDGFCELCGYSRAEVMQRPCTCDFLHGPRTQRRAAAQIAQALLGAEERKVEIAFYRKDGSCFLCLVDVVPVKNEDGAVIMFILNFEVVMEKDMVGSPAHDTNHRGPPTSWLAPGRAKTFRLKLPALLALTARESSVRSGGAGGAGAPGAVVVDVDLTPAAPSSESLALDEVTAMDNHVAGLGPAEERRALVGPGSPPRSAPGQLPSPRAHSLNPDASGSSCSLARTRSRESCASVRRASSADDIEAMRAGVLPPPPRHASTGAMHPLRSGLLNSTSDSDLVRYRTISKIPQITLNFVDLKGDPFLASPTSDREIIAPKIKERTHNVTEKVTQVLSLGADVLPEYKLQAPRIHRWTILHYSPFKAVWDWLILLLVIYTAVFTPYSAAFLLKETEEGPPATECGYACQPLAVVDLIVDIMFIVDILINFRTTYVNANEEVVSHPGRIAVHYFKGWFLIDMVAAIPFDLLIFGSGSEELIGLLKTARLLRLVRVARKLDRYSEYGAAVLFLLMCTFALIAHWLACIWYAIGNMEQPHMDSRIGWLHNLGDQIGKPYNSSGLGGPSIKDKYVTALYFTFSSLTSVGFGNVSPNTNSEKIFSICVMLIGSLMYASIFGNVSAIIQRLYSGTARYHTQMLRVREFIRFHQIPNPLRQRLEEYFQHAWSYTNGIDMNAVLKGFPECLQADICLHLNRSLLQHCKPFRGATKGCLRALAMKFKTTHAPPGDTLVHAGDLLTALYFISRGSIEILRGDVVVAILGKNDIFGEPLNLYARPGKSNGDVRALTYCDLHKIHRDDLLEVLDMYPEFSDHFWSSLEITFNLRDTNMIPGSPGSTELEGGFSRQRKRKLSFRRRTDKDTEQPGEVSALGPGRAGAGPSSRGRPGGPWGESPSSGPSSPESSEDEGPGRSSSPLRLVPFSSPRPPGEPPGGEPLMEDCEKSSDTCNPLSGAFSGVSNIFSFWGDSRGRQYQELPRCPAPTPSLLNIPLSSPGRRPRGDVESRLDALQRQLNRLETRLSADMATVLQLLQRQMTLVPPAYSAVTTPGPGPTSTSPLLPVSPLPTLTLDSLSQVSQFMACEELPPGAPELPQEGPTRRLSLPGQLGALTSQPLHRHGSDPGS

Row | Structure (SMILES) | hERG current change (%, negative = inhibition) at 10uM [%]
1 | CC(C)(C)C(=O)N1CCC[C@H]1C(O)(c1ccccc1)c1ccccc1 | -28.5
2 | CCCn1c(N)c(C(=O)CSc2nc3ncc(Cl)cc3[nH]2)c(=O)n(C)c1=O | 10.3
3 | CN(C)c1ccc(C(=O)OCC(=O)NCC2CCCO2)cc1 (centres unmarked) | -4.33
4 | O=C(CN1CCN(c2ccccn2)CC1)Nc1nc2ccccc2s1 | -47.7
5 | CCCN1CNC(=S)N(c2ccccc2OCC)C1 | 5.61
6 | CC(=O)Oc1ccc2c(=O)c(Oc3ccccc3[N+](=O)[O-])coc2c1 | 15.4
7 | O=c1[nH]c2cc(C(F)(F)F)ccc2n1-c1cc(C(F)(F)F)ccc1O | 3.63
8 | CC(C)N(CCc1ccncc1)C(=S)Nc1cccc(Cl)c1 | -71.3
9 | COc1ccc(CSc2nc(C)cc(C)c2C#N)cc1 | 26.6
10 | COc1ccc(C(OC(=O)c2ccco2)C(=O)NC(C)(C)C)cc1 (centres unmarked) | 72.2
11 | Cc1cccc(C(CC(=O)N2CCCCC2)c2ccccc2)c1O (centres unmarked) | -34.2
12 | c1ccc(Oc2ccc3ccccc3n2)cc1 | -14.7
13 | COc1ccc(-c2csc(/N=C/N(C)C)n2)cc1OC | 16.1
14 | COc1ccc(-n2nc3c(c2NC(=O)c2ccc(S(=O)(=O)N4CCOCC4)cc2)CS(=O)C3)cc1 (centres unmarked) | 8.18
15 | CCCn1c(C2CC(=O)N(c3ccc(C)cc3)C2)nc2ccccc21 (centres unmarked) | -52.9
16 | Cc1cc(C(=O)COC(=O)c2ccc(O)cc2)c(C)n1-c1ccccc1F | 14.6
17 | CC(C)c1ccc(NC(=S)NC2CCN(Cc3ccccc3)CC2)cc1 | -17.4
18 | COCCNc1nc2sc3c(c2c(=O)n1Cc1ccco1)CCCCC3 | 16.4
19 | O=C(COC(=O)CCN1C(=O)C2CC=CCC2C1=O)Nc1ccc(Cl)cc1F (centres unmarked) | -31.9
20 | CN(c1ccccc1)S(=O)(=O)c1cccc(C(=O)OCC(=O)Nc2ccc3[nH]c(=O)[nH]c3c2)c1 | 19.6
21 | COc1ccc(OCCCC(=O)NC(C)c2ccccc2)cc1 (centres unmarked) | 8.04
22 | Cc1n[nH]c(C)c1N1C(=O)c2cccc3cc(Br)cc(c23)C1=O | 11.7
23 | CC(C)NNC(=O)c1ccncc1.O=P(O)(O)O | 20.4

Row | Structure (SMILES) | hERG current change (%, negative = inhibition) at 10uM [%]
24 | Br.CC(C)(C)C(=O)CN1C2=NCCCN2c2ccccc21 | -75.8
25 | O=C(Oc1ccc([N+](=O)[O-])cc1)c1ccc(Cl)c(S(=O)(=O)N2CCCCC2)c1 | 18.5
26 | CN(Cc1nc2ccccc2c(=O)[nH]1)c1ccccc1 | 4.03
27 | Cc1ccc(N(C(=O)CNC(=O)c2ccco2)C(C(=O)NC2CCCCC2)c2cccnc2)cc1C (centres unmarked) | 15
28 | CCc1ccc(OCC(=O)N/N=C(\C)c2ccccc2OC(F)F)cc1 | 14.1
29 | CCN(CC(=O)Nc1ccc(NC(C)=O)cc1)C(=O)/C=C/c1ccc([N+](=O)[O-])cc1 | -44.9
30 | CCOC(=O)CNc1nc(Cl)nc(NC(C)(C)C)n1 | 18.7
31 | COc1ccc(S(=O)(=O)Nc2nnc(CC(C)(C)C)s2)cc1 | 9.63
32 | CCn1nccc1C(=O)Nc1ccc(S(=O)(=O)NC23CC4CC(CC(C4)C2)C3)cc1 | -4.84
33 | O=S(=O)(Cc1cc(-c2ccc(Cl)cc2)no1)c1ccccc1 | 0.608
34 | CCn1cc(C(=O)N[C@@H](CCSC)C(=O)NCCOC)c(=O)c2cc3c(cc21)OCO3 | 11.1
35 | CCOC(=O)CC1(NC(=O)C2CCC(=O)N(C3CC3)C2)CCCCC1 (centres unmarked) | 19.4
36 | Cc1cccc(C)c1NC(=O)COC(=O)c1cc(=O)c2ccccc2o1 | 5.2
37 | Cc1c(C(=O)N2CCN(CCc3ccccc3)CC2)oc2ccccc12 | -72.4
38 | Cc1ccc(NC(=O)CSc2nc3ncc(Cl)cc3[nH]2)c(C)c1 | 13.7
39 | CCOCCCNC(=O)c1c[nH]c2ccc(S(=O)(=O)Nc3cccc(OC)c3)cc2c1=O | 25.6
40 | COc1ccccc1NS(=O)(=O)c1ccc(NC(=O)N2CCCCC2)cc1 | 1.69
41 | O=C(Nn1c(-c2ccc(Br)cc2)nc2ccccc2c1=O)c1cccnc1 | 6.18
42 | CN1CCC(NC(=O)c2ccncc2)CC1 | 4.31
43 | C1=CC2CC1CC2CNCc1ccco1.Cl (centres unmarked) | 4.12
44 | COC(=O)c1ccccc1NC(=O)CSc1nnc(-c2cccnc2)o1 | -6.93
45 | Nc1ccccc1-c1nnc2n1CCCCC2 | 25.8
46 | COC(=O)c1ccccc1NC(=O)CN(C)S(=O)(=O)c1cc(C)ccc1OC | -13.4

Row | Structure (SMILES) | hERG current change (%, negative = inhibition) at 10uM [%]
47 | O=S(Cc1ccccc1)CC(O)(c1ccccc1)c1ccccc1 (centres unmarked) | -12.5
48 | NNC(=O)c1oc2nc(-c3cccs3)cc(-c3ccco3)c2c1N | -69.8
49 | Cc1cc(C(F)(F)F)nn1CC(=O)NCC1CCCO1 (centres unmarked) | 4.29
50 | O=C(O)c1cccc(CSc2nnc(Cc3ccccc3)o2)c1 | -5.18
51 | CC1=NN(c2ccc(C)cc2C)C(=O)C1C(c1ccccc1)C1C(=O)N(c2ccc(C)cc2C)N=C1C (centres unmarked) | -12.5
52 | CCOC(=O)c1cc(-c2ccc(C)cc2)n(CCC(=O)N2CCN(c3ccccn3)CC2)c1C | -41
53 | O=C(CN1CCCCC1)NNC(=O)c1cccc(Br)c1 | 4.73
54 | Cc1ccccc1OCC(=O)NCCS(=O)(=O)N1CCN(c2ccc(F)cc2)CC1 | -66.6
55 | COC(=O)c1nn(-c2ccccc2)c(Sc2ccc(Cl)cc2)c1/C=N/O | 3.1
56 | CC1CN(C(=O)/C=C/c2ccccc2Cl)CC(C)O1 (centres unmarked) | 18.2
57 | CC(C)(C)c1ccc(NC(=O)CC2(C(F)(F)F)OCCO2)cc1 | -5.25
58 | CCOc1ccc(S(=O)(=O)N2CCCC(C(=O)N3CCN(CC)CC3)C2)cc1Cl (centres unmarked) | -2.73
59 | O=C(NCc1ccc2c(c1)OCO2)C1CCCN1S(=O)(=O)c1ccc(Cl)cc1 (centres unmarked) | -35.6
60 | Cc1cc(C)n(CCC(=O)N2CCN(S(=O)(=O)c3ccc(C)c(C)c3)CC2)n1 | 2.06
61 | Cc1ccc(C(=O)NC(=S)Nc2cccc3nsnc23)cc1 | 3.1
62 | COC(=O)c1[nH]c2ccc(Br)cc2c1NC(=O)CN1CCN(C2CCCCC2)CC1 | -78.7
63 | O=C(NC1CC2CCCC(C1)N2CC(=O)N1CCCc2ccccc21)C1CCCCC1 (centres unmarked) | -70.6
64 | O=C(OCCOc1ccc(Br)cc1)c1ccc(Cl)c(S(=O)(=O)N2CCOCC2)c1 | -4.43
65 | COC(=O)c1ccc(/C=C/C(=O)c2ccc(OC)cc2)cc1 | 6.75
66 | COc1ccc(CC(=O)Nc2cc(C)ccc2O)cc1OC | 4.22
67 | O=C(c1ccc(SCc2ccco2)c([N+](=O)[O-])c1)N1CCOCC1 | 2.2
68 | CCOCCCN(C(=O)Nc1ccc(CC)cc1)C1CCN(C(C)=O)CC1 | -28
69 | O=C(Cc1coc2cc3c(cc12)CCC3)NC1CCCCCCC1 | 0.532

Row | Structure (SMILES) | hERG current change (%, negative = inhibition) at 10uM [%]
70 | CCCCn1c(=O)c(C(=O)Nc2ccccn2)c(O)c2ccccc21 | 2.67
71 | Cn1c(=O)c2cc(S(=O)(=O)NCCC(=O)Nc3ccc(Cl)cc3)ccc2n(C)c1=O | -4.76
72 | COc1ccc(Cc2nnc(N/N=C/c3ccc(Br)cc3)[nH]c2=O)cc1OC | 8.36
73 | CCN(CC(=O)NCc1ccc(Cl)cc1)C(=O)c1ccc2cc(OC)ccc2c1 | 3.72
74 | CCCNC(=O)c1ccc(Cl)c(Cl)c1 | 7.87
75 | Cc1cccc(C)c1Oc1nc(-c2ccccc2)ncc1S(=O)(=O)c1ccccc1 | 7.21
76 | O=C(Nc1ccc(Cl)cn1)Nc1cccs1 | -2.25
77 | CC(C(=O)OCC(=O)N1CCN(c2ccccc2)CC1)N1C(=O)c2ccccc2C1=O (centres unmarked) | -6.66
78 | CCN(CC)S(=O)(=O)c1cc(NC(=O)COC(=O)C2CCC2)ccc1C | -0.777
79 | CCC(=O)N(CCc1ccccc1)Cc1cc2cc(OC)ccc2[nH]c1=O | -15.6
80 | Cc1cc(OC(=O)c2ccccc2[N+](=O)[O-])c([N+](=O)[O-])c(=O)[nH]1 | 9.57
81 | Cc1ccc(C(=O)N/N=C2\CCSC2)cc1[N+](=O)[O-] | -2.95
82 | CCO[C@H]1OC(C(=O)O)=C[C@@H](c2ccc(C(F)(F)F)cc2)[C@@H]1CCCO | 18.6
83 | CC(=O)Nc1nc(CC(C)C)cc(-c2ccco2)c1C#N | 1.59
84 | CC(O)CNc1nc2c(c(=O)n(C)c(=O)n2C)n1C/C=C/c1ccccc1 (centres unmarked) | -13.7
85 | COc1ccc(N/C=C/C(=O)c2ccccc2)cc1 | 7.98
86 | COc1ccccc1NC(=O)C(C)N(C)CCOc1ccccc1 (centres unmarked) | 16.5
87 | Cn1cccc1CNC(=O)Nc1ccc(Cl)c(Cl)c1 | 10.1
88 | O=C(COC(=O)CC1CCCC1)Nc1ccc(Cl)cn1 | -1.49
89 | COc1ccc(/C=C/C(=O)c2ccc(OC)cc2OC)c(OC)c1 | 1.1
